In the antibiotic and cytotoxicity screens of Wong et al. (2023):
The other results are listed elsewhere or left out.

What was measured:
HSkMC = human skeletal muscle cells; test: cytotoxicity call (relative viability < 0.9); details: 10 µM
HepG2 = test: cytotoxicity call (relative viability < 0.9); details: 10 µM
S. aureus RN4220 = test: growth inhibition call (relative growth <= 0.2); details: 50 µM

Row | SMILES | cytotoxicity call (HSkMC) | cytotoxicity call (HepG2) | growth inhibition call (S. aureus RN4220)
1 | CC(C)NC(=O)N(C)C[C@H]1Oc2ccc(NC(=O)Cc3ccccc3)cc2C(=O)N([C@@H](C)CO)C[C@@H]1C | inactive | inactive | inactive
2 | Cn1[nH]cc2c(=O)cccc1-2 | inactive | inactive | inactive
3 | C[C@@H]1CN([C@@H](C)CO)C(=O)c2c(c3ccccc3n2C)-c2ccccc2CO[C@@H]1CN(C)S(C)(=O)=O | inactive | inactive | inactive
4 | CNC(=O)CN(C#N)c1nc(C)cc(C)n1 | inactive | inactive | inactive
5 | O=C(C[C@@H]1C[C@H]2c3cc(NS(=O)(=O)c4ccc(F)cc4)ccc3O[C@H]2[C@H](CO)O1)NC1CCCCC1 | inactive | inactive | inactive
6 | C[C@@H]1CCCCO[C@H](CN(C)Cc2ccc(C(F)(F)F)cc2)[C@H](C)CN([C@@H](C)CO)C(=O)c2cc(NS(=O)(=O)c3cccs3)ccc2O1 | inactive | active | inactive
7 | C[C@H]1CN([C@@H](C)CO)C(=O)Cc2cc(NC(=O)Nc3cccc4ccccc34)ccc2O[C@@H]1CN(C)C(=O)NC1CCCCC1 | inactive | inactive | inactive
8 | C[C@@H]1CCCCO[C@@H](CN(C)Cc2ccc(C(F)(F)F)cc2)[C@H](C)CN([C@@H](C)CO)C(=O)c2cc(NS(C)(=O)=O)ccc2O1 | inactive | inactive | inactive
9 | Cc1ccc(S(=O)(=O)N(C)C[C@@H]2OCCCC[C@H](C)Oc3ccc(NC(=O)Cc4ccccc4)cc3C(=O)N([C@@H](C)CO)C[C@H]2C)cc1 | inactive | inactive | inactive
10 | Cc1noc(C)c1NC(=O)Nc1ccc2c(c1)CC(=O)N([C@@H](C)CO)C[C@@H](C)[C@@H](CN(C)Cc1ccc(Oc3ccccc3)cc1)O2 | inactive | inactive | inactive
